Patent US5773574A, “Polypeptides for promoting cell attachment” (The Scripps Research Institute, priority 1991, dated 1998)
At least one peptide structure holds a part that was inferred or is arguable (an end, a ring closure or a residue). Some entries repeat one wording, which the source may state once for all of them. Residues, ends and D or L forms follow the SMILES beside them.

Legend:
GPIIb-IIIa [1] = molecular target: T1, GPIIb-IIIa (Homo sapiens, UniProt P05106+P08514); test: Competition assay: biotinylated Fn binding to purified GPIIb-IIIa in presence of synthetic polypeptides; details: for inhibition of Fn binding to GPIIb-IIIa-coated wells: 10 nM biotinylated Fn, FIG. 10B; for inhibitory effect on Fn binding to GPIIb-IIIa (in words): 250 μM polypeptide, FIG. 9, printed order of increasing inhibitory effect: 1400, 1398, 1397, 1396, 1399
T1 construct: GPIIb-IIIa from platelet lysates is purified by the following procedure; from tissue

[2] = molecular target: T2, vitronectin receptor, αvβ3 (Homo sapiens, UniProt P05106+P06756); test: Competition assay: biotinylated Fn binding to vitronectin receptor; details: 10 nM biotinylated Fn; FIG. 10B
T2 construct: vitronectin receptor was purified from human placenta, the diced tissue of which was first extracted with 100 mM octylglucoside; from tissue; host or cells: human placenta

[3] = molecular target: T2, vitronectin receptor, αvβ3; test: Competition assay: biotinylated Fg binding to vitronectin receptor; details: 5 nM biotinylated Fg; FIG. 10A
GPIIb-IIIa [4] = molecular target: T1, GPIIb-IIIa; test: Competition assay: biotinylated Fg binding to purified GPIIb-IIIa; details: 5 nM biotinylated Fg; FIG. 10A

SMILES	inhibitory effect on Fn binding to GPIIb-IIIa (in words) (GPIIb-IIIa [1])	also measured
CC[C@H](C)[C@H](NC(=O)[C@H](CO)NC(=O)[C@H](CC(N)=O)NC(=O)[C@H](CCCNC(=N)N)NC(=O)[C@H](CO)NC(=O)[C@H](Cc1c[nH]cn1)NC(=O)[C@@H]1CCCN1C(=O)[C@@H](NC(=O)[C@H](CCCNC(=N)N)NC(=O)[C@@H](N)CC(=O)O)C(C)C)C(=O)N[C@H](C(=O)O)[C@@H](C)O [D-11-T] (H-DRVPHSRNSIT-OH)	–	inhibition of Fn binding to GPIIb-IIIa-coated wells (GPIIb-IIIa [1]): specifically inhibited; inhibition of Fn binding to αVβ3-coated wells [2]: lack of inhibition; inhibition of Fg binding to αVβ3-coated wells [3]: failed to exhibit any inhibitory activity; inhibition of Fg binding to GPIIb-IIIa-coated wells (GPIIb-IIIa [4]): specifically inhibited
CC[C@H](C)[C@H](NC(=O)[C@H](CO)NC(=O)[C@H](CC(N)=O)NC(=O)[C@H](CCCNC(=N)N)NC(=O)[C@H](C)NC(=O)[C@H](Cc1c[nH]cn1)NC(=O)[C@@H]1CCCN1C(=O)[C@@H](NC(=O)[C@H](CCCNC(=N)N)NC(=O)[C@@H](N)CC(=O)O)C(C)C)C(=O)N[C@H](C(=O)O)[C@@H](C)O [serine at residue number 1399] (H-DRVPHARNSIT-OH)	without effect	–
CC[C@H](C)[C@H](NC(=O)[C@H](CO)NC(=O)[C@H](CC(N)=O)NC(=O)[C@H](CCCNC(=N)N)NC(=O)[C@H](CO)NC(=O)[C@H](Cc1c[nH]cn1)NC(=O)[C@@H]1CCCN1C(=O)[C@@H](NC(=O)[C@H](CCCNC(=N)N)NC(=O)[C@H](C)N)C(C)C)C(=O)N[C@H](C(=O)O)[C@@H](C)O (H-ARVPHSRNSIT-OH)	equally ineffective	–
CC[C@H](C)[C@H](NC(=O)[C@H](CO)NC(=O)[C@H](CC(N)=O)NC(=O)[C@H](CCCNC(=N)N)NC(=O)[C@H](CO)NC(=O)[C@H](C)NC(=O)[C@@H]1CCCN1C(=O)[C@@H](NC(=O)[C@H](CCCNC(=N)N)NC(=O)[C@@H](N)CC(=O)O)C(C)C)C(=O)N[C@H](C(=O)O)[C@@H](C)O [histidine at residue number 1398] (H-DRVPASRNSIT-OH)	without effect	–
CC(C)[C@H](NC(=O)[C@H](CCCNC(=N)N)NC(=O)[C@@H](N)CC(=O)O)C(=O)N1CCC[C@H]1C(=O)N[C@@H](Cc1c[nH]cn1)C(=O)N[C@@H](CO)C(=O)N[C@@H](CCCNC(=N)N)C(=O)N[C@@H](CC(N)=O)C(=O)N[C@@H](CO)C(=O)N[C@@H](C)C(=O)N[C@H](C(=O)O)[C@@H](C)O [isoleucine (1403)] (H-DRVPHSRNSAT-OH)	did not result in a decrease of inhibitory effectiveness	–
CC[C@H](C)[C@H](NC(=O)[C@H](CO)NC(=O)[C@H](CC(N)=O)NC(=O)[C@H](C)NC(=O)[C@H](CO)NC(=O)[C@H](Cc1c[nH]cn1)NC(=O)[C@@H]1CCCN1C(=O)[C@@H](NC(=O)[C@H](CCCNC(=N)N)NC(=O)[C@@H](N)CC(=O)O)C(C)C)C(=O)N[C@H](C(=O)O)[C@@H](C)O (H-DRVPHSANSIT-OH)	next least inhibitory effect	–
CC[C@H](C)[C@H](NC(=O)[C@H](CO)NC(=O)[C@H](C)NC(=O)[C@H](CCCNC(=N)N)NC(=O)[C@H](CO)NC(=O)[C@H](Cc1c[nH]cn1)NC(=O)[C@@H]1CCCN1C(=O)[C@@H](NC(=O)[C@H](CCCNC(=N)N)NC(=O)[C@@H](N)CC(=O)O)C(C)C)C(=O)N[C@H](C(=O)O)[C@@H](C)O [asparagine (1401)] (H-DRVPHSRASIT-OH)	did not result in a decrease of inhibitory effectiveness	–
CC[C@H](C)[C@H](NC(=O)[C@H](C)NC(=O)[C@H](CC(N)=O)NC(=O)[C@H](CCCNC(=N)N)NC(=O)[C@H](CO)NC(=O)[C@H](Cc1c[nH]cn1)NC(=O)[C@@H]1CCCN1C(=O)[C@@H](NC(=O)[C@H](CCCNC(=N)N)NC(=O)[C@@H](N)CC(=O)O)C(C)C)C(=O)N[C@H](C(=O)O)[C@@H](C)O [serine (1402)] (H-DRVPHSRNAIT-OH)	did not result in a decrease of inhibitory effectiveness	–
CC[C@H](C)[C@H](NC(=O)[C@H](CO)NC(=O)[C@H](CC(N)=O)NC(=O)[C@H](CCCNC(=N)N)NC(=O)[C@H](CO)NC(=O)[C@H](Cc1c[nH]cn1)NC(=O)[C@@H]1CCCN1C(=O)[C@H](C)NC(=O)[C@H](CCCNC(=N)N)NC(=O)[C@@H](N)CC(=O)O)C(=O)N[C@H](C(=O)O)[C@@H](C)O [valine at residue number 1396] (H-DRAPHSRNSIT-OH)	without effect	–
CC[C@H](C)[C@H](NC(=O)[C@H](CO)NC(=O)[C@H](CC(N)=O)NC(=O)[C@H](CCCNC(=N)N)NC(=O)[C@H](CO)NC(=O)[C@H](Cc1c[nH]cn1)NC(=O)[C@@H]1CCCN1C(=O)[C@@H](NC(=O)[C@H](C)NC(=O)[C@@H](N)CC(=O)O)C(C)C)C(=O)N[C@H](C(=O)O)[C@@H](C)O (H-DAVPHSRNSIT-OH)	equally ineffective	–
CC[C@H](C)[C@H](NC(=O)[C@H](CO)NC(=O)[C@H](CC(N)=O)NC(=O)[C@H](CCCNC(=N)N)NC(=O)[C@H](CO)NC(=O)[C@H](Cc1c[nH]cn1)NC(=O)[C@@H]1CCCN1C(=O)[C@@H](NC(=O)[C@H](CCCNC(=N)N)NC(=O)[C@@H](N)CC(=O)O)C(C)C)C(=O)N[C@@H](C)C(=O)O [threonine (1404)] (H-DRVPHSRNSIA-OH)	did not result in a decrease of inhibitory effectiveness	–
CC[C@H](C)[C@H](NC(=O)[C@H](CO)NC(=O)[C@H](CC(N)=O)NC(=O)[C@H](CCCNC(=N)N)NC(=O)[C@H](CO)NC(=O)[C@H](Cc1c[nH]cn1)NC(=O)[C@H](C)NC(=O)[C@@H](NC(=O)[C@H](CCCNC(=N)N)NC(=O)[C@@H](N)CC(=O)O)C(C)C)C(=O)N[C@H](C(=O)O)[C@@H](C)O [proline at residue number 1397] (H-DRVAHSRNSIT-OH)	without effect	–
CC[C@H](C)[C@H](NC(=O)[C@@H](NC(=O)[C@H](CC(N)=O)NC(=O)[C@H](CCCNC(=N)N)NC(=O)[C@H](CC(=O)O)NC(=O)[C@@H]1CCCN1C(=O)[C@H](Cc1c[nH]cn1)NC(=O)[C@@H](N)C(C)C)[C@@H](C)O)C(=O)N[C@@H](CO)C(=O)N[C@@H](CCCNC(=N)N)C(=O)N[C@@H](CO)C(=O)O [scrambled polypeptide, reference compound] (H-VHPDRNTISRS-OH)	ineffective	inhibition of Fn binding to GPIIb-IIIa-coated wells (GPIIb-IIIa [1]): failed to exhibit an inhibitory effect; inhibition of Fn binding to αVβ3-coated wells [2]: lack of inhibition; inhibition of Fg binding to αVβ3-coated wells [3]: failed to exhibit any inhibitory activity; inhibition of Fg binding to GPIIb-IIIa-coated wells (GPIIb-IIIa [4]): failed to exhibit an inhibitory effect
